B1: full-length RBBP5 (RBBP5_([…])) (natural protein)
chain: not shown
notes: The methods also say that RBBP5 WD40-containing constructs were made as His-Sumo fusions in Rosetta cells and cut with Ulp1; also called RBBP5FL
B2: RBBP5_(WDRP) (RBBP5_([…])) (domain or fragment)
chain: not shown
notes: also called WD40 repeat proximal region
B3: MLL1_(WIN-SET) (MLL1_([…])) containing both WIN motif and SET domain (domain or fragment)
chain: not shown
notes: MLL1 (KMT2A), […] (WIN motif and SET domain)

Experiments:
WDR5Δ22 (WDR5_(23–334)) = WDR5Δ22 (WDR5_(23–334)) (UniProt P61964); test: ITC; RBBP5 constructs with WDR5_(23–334); 150 mM NaCl, 25 mM Tris–HCl pH 8.0; 20°C; one-site model; settings: both partners purified
[1] = target: B1; test: cross-linking; SEC-purified MLL1_(3754–3969)–WDR5_(23–334)–RBBP5FL–ASH2LFL complex, 5 μM, zero-length cross-linker EDC/Sulfo-NHS; 150 mM NaCl, 25 mM HEPES pH 7.0; room temperature; LC-MS/MS, pLink2; settings: both partners purified

binding result (WDR5Δ22 (WDR5_(23–334)))	binding result [1]	Binder
binds		B1
binds		B2
	binds	B3

Reference: publication PMC6821195, “The internal interaction in RBBP5 regulates assembly and activity of MLL1 methyltransferase complex” (Nucleic Acids Research, 2019)
